# From PMC10668032
# The list shows a part of the results. At the low end of the ranking the order means little.
# Molecular target: SIX1 homeodomain (reference allele) (UniProt Q15475)
# Test: universal protein binding microarray
# Settings: Universal all-10-mer PBM (8x60K, AMADID 030236), 300 nM GST-tagged protein, Alexa Fluor 488 anti-GST; buffer, salt, pH and temperature not stated; high values mean tight binding; most listed sequences are background and not binding sites; double strand, one strand shown
row,Sequence,binding signal [E-score]
1,CTTGTTGC,-0.216
2,CGGGGGTC,0.0628
3,CCGGCGAC,-0.00394
4,ATAGAGAT,0.212
5,GATGCTCA,-0.161
6,CCGTTGGA,-0.0757
7,CGACTCGC,0.0358
8,CCCAGGGG,0.0478
9,ATGTGCAC,-0.258
10,GTGCCTAA,-0.332
11,ATTATCTA,0.0829
12,GAAGTTGA,-0.164
13,AGTCAGCA,-0.214
14,ACCTCAAC,-0.0189
15,AAACTGCG,-0.24
16,ATGAGTAA,0.1
17,ATTTTTAG,-0.161
18,AGAGCGAA,-0.173
19,CCCATATC,0.469
20,CCGACGTC,-0.0626
21,GAACATGC,-0.208
22,CGCTCTTA,-0.051
23,AAGACGAG,0.0303
24,CCCCCTGC,-0.0849
25,TGCATGAA,-0.199

row,Sequence,binding signal [E-score]
1,ATGCGCAA,-0.184
2,CGAGAGGA,0.0132
3,GTATTCTA,0.191
4,TCCCGCAA,0.00146
5,CAGCTCAA,-0.0998
6,TAACCCCA,0.123
7,CGTTGCTA,0.0843
8,GAGACGTA,0.137
9,CCGAAAGG,-0.156
10,GTGTCGTA,0.231
11,TATGGTAA,0.166
12,ATCGAACC,0.141
13,CTAATTGC,0.0114
14,GACTGACA,-0.0589
15,CCTTGGCC,-0.201
16,ACAATTAG,-0.187
17,TAAGGGTA,0.244
18,CGCGGCCC,-0.121
19,AACGCAAG,-0.168
20,ATTCACAG,-0.206
21,GTCCCGCA,-0.161
22,AGACTGAA,-0.202
23,AGACGCTG,0.00255
24,CTAAGAGC,-0.0759
25,CAATGGCA,-0.221

row,Sequence,binding signal [E-score]
1,ATATTAAA,0.267
2,ATGACAGA,0.00632
3,AGTAACCC,0.0937
4,CCTTGTCA,-0.174
5,CGCGTAGC,-0.158
6,AGTTAAAT,-0.198
7,CCCCCACC,-0.179
8,ATTTGCGG,-0.246
9,AAATCTAC,0.0471
10,GCATGGAC,-0.101
11,TGTAAACA,-0.0226
12,CGAAACGA,-0.0922
13,ATAATGAG,0.0287
14,AATTTGTG,0.118
15,GTGTGACA,0.139
16,CCTGACGC,-0.0282
17,CGTAGTTA,0.0451
18,CGGTAGCC,-0.0143
19,TTATTGAA,-0.163
20,ATCTGTCG,0.174
21,CCTTAGAG,0.0921
22,ATGTGTTA,-0.173
23,CAGCAAGA,-0.0298
24,AGACTCTA,-0.338
25,CCAGGTCG,0.00395

row,Sequence,binding signal [E-score]
1,TACAAACA,-0.0533
2,GTGTGATA,0.411
3,CAAGGGTA,0.164
4,GCATCGGA,0.161
5,GGGAATAC,0.15
6,GCGTGTCC,0.0128
7,CCTTGCCG,-0.0987
8,CGGGCTCC,-0.209
9,ACTTGACG,-0.131
10,AGCGAAAG,-0.233
11,ATACGCAT,0.349
12,AAAAGGTG,0.0163
13,GCAGCAGA,-0.0621
14,CCAATGCC,-0.252
15,AACTGGGG,0.135
16,GCTTGACC,-0.302
17,AAGCATAA,-0.242
18,TCCCGGAA,-0.0745
19,AGAAGATC,0.231
20,GGTATCAA,0.486
21,AGCTCTTA,-0.179
22,ACCATGTG,0.0442
23,CAAAGTGC,-0.37
24,CCAATTGC,-0.237
25,ACTGAGGC,-0.304

row,Sequence,binding signal [E-score]
1,ATAACCAG,-0.0179
2,GGAATCAC,0.0922
3,ACTGTAAT,-0.0694
4,TGATGCCA,0.152
5,ACCCGGAA,0.184
6,AGAGACTG,-0.122
7,CTAGCAAG,-0.0469
8,AAATCCCC,0.181
9,CTGGCGCC,-0.164
10,CGGGATAC,0.408
11,TCCGACGA,0.136
12,ATTGAATG,-0.00868
13,CCGTTGGC,-0.132
14,GCGGAGTA,0.228
15,CCTCTTTA,0.0511
16,CTGCAGCC,-0.133
17,CAAACTGC,-0.0918
18,GAGTTCAC,-0.108
19,ATACCTAC,0.385
20,CTCTTTCC,-0.225
21,CCGCTGTC,-0.0594
22,AGAGATGC,0.0241
23,GATACACC,0.469
24,GCAAGAAA,-0.124
25,TGGTTCAA,0.0778

row,Sequence,binding signal [E-score]
1,GCGTCCCC,-0.0441
2,GATAATAC,0.406
3,GAGTGGGC,-0.259
4,CGCGGGAG,0.0168
5,ATAATGGC,-0.0377
6,GCGCGCCA,-0.278
7,ACTGTTGG,-0.0843
8,CCTGGCAC,-0.2
9,CTATTCGA,-0.088
10,ACCCAGTG,-0.00211
11,CGAAGCCC,-0.106
12,AGAGGAAG,-0.0478
13,ATTAATCA,0.146
14,CCGCCGAC,-0.106
15,GGGATGAA,0.191
16,CAATCAGG,0.108
17,ACAACCCC,-0.0833
18,ATCATACA,0.306
19,CTGTGTGA,0.00741
20,ACGCGACG,-0.1
21,AGCTTAAC,-0.143
22,ATGTCATC,-0.129
23,ACCGGGGG,0.143
24,AGGATAGA,0.0755
25,CACTCCTC,-0.102

row,Sequence,binding signal [E-score]
1,GTCCATCA,0.00175
2,CGAGCATC,-0.0416
3,AGGTCTCG,0.0111
4,ATGCATAG,0.0346
5,ATCTAAAC,0.132
6,ACGGCTTA,-0.0594
7,AGTTATGC,-0.142
8,CATAGGAA,-0.0115
9,CACACGCA,0.0211
10,AGCTTCAT,-0.183
11,CTGAGTCA,-0.0969
12,CCCCAAAG,-0.257
13,AGACATAC,0.00625
14,ATCGAAAC,0.2
15,GATCGGAA,0.167
16,CCGCAGCA,-0.189
17,GGTGCTAC,-0.00308
18,ATTCGAGC,-0.00894
19,TCTAGAAA,-0.104
20,TCTCTTAA,-0.0663
21,CAGCGGCG,-0.137
22,CTCGTTAA,-0.127
